# Measured values published in the supplement of paper PMC4967469.
# By IC50 is meant the dose at which the fit gives 50% viability; where the fit passes the top or lowest dose, that dose stands as a limit. AUC sums up the same curve from the lowest dose to the 256-fold higher top dose: 1 means no effect, lower means more sensitive. For some assays here: Where the top dose is marked as inferred, it comes from the curve model; the source does not state it. For some assays here: An entry number marks a drug with two screens in the source, which often give different values.
# How the values were obtained:
# Test in all cases: Viability of human cancer cell lines after 72 h of drug (GDSC screen)
# Thapsigargin = compound: C/C=C(/C)C(=O)O[C@H]1C(C)=C2[C@H]([C@@H]1OC(=O)CCCCCCC)[C@@](C)(OC(C)=O)C[C@H](OC(=O)CCC)[C@@]1(O)[C@H]2OC(=O)[C@@]1(C)O [Thapsigargin]; settings: top dose 0.512 µM; top dose inferred
# Procedure: (§1)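 Human cancer cell lines in 384-well plates, medium with 10% serum, drug for 72 h over a 256-fold dose range (nine 2-fold or five 4-fold steps up to the top dose). Adherent lines were fixed and stained with the nucleic acid dye Syto60, suspension lines read with resazurin; signal relative to control wells, capped at 0 and 100%. One two-parameter sigmoid per drug and line, fitted in a mixed model over all curves with the slope shared within a line.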
# QL-X-138 = compound: C=CC(=O)Nc1cc(-n2c(=O)ccc3cnc4ccc(-c5cn[nH]c5)cc4c32)ccc1C [QL-X-138]; settings: top dose 10.24 µM; top dose inferred
# Procedure: as §1
# GSK269962A = compound: CCn1c(-c2nonc2N)nc2cnc(Oc3cccc(NC(=O)c4ccc(OCCN5CCOCC5)cc4)c3)cc21 [GSK269962A]; settings: top dose inferred
# Procedure: as §1
# MPS-1-IN-1 = compound: COc1cc(N2CCC(O)CC2)ccc1Nc1cc(Nc2ccccc2S(=O)(=O)C(C)C)c2cc[nH]c2n1 [MPS-1-IN-1]; settings: top dose 20 µM; top dose inferred
# Procedure: as §1
# (5Z)-7-Oxozeaenol = compound: COc1cc(O)c2c(c1)/C=C/C[C@H](O)[C@H](O)C(=O)/C=C\C[C@H](C)OC2=O [(5Z)-7-Oxozeaenol]; settings: top dose 10 µM; top dose inferred
# Procedure: as §1
# CP466722 = compound: COc1cc2ncnc(-n3nc(-c4ccccn4)nc3N)c2cc1OC [CP466722]; settings: top dose 16 µM; top dose inferred
# Procedure: as §1
# Zibotentan = compound: COc1nc(C)cnc1NS(=O)(=O)c1cccnc1-c1ccc(-c2nnco2)cc1 [Zibotentan]; settings: top dose 20 µM; top dose inferred
# Procedure: as §1
# CMK = compound: Cc1ccc(-c2c(C(=O)CCl)n(CCCO)c3ncnc(N)c23)cc1 [CMK]; settings: top dose 4 µM; top dose inferred
# Procedure: as §1
# ABT-869 = compound: Cc1ccc(F)c(NC(=O)Nc2ccc(-c3cccc4[nH]nc(N)c34)cc2)c1 [ABT-869]; settings: top dose 1.024 µM; top dose inferred
# Procedure: as §1
# CHIR-99021 = compound: Cc1cnc(-c2cnc(NCCNc3ccc(C#N)cn3)nc2-c2ccc(Cl)cc2Cl)[nH]1 [CHIR-99021]
# Procedure: as §1
# Cytarabine = compound: Nc1ccn([C@@H]2O[C@H](CO)[C@@H](O)[C@@H]2O)c(=O)n1 [Cytarabine]; settings: top dose 2 µM
# Procedure: as §1
# KU-55933 = compound: O=c1cc(-c2cccc3c2Sc2ccccc2S3)oc(N2CCOCC2)c1 [KU-55933]; settings: top dose 10 µM
# Procedure: as §1
# ABT-888 = compound: C[C@]1(c2nc3c(C(N)=O)cccc3[nH]2)CCCN1 [ABT-888]; settings: top dose 5 µM; top dose inferred
# Procedure: as §1
# [1] = top dose 2.5 µM, screen: GDSC drug entry 127
# [2] = top dose 5 µM, screen: GDSC drug entry 1192
# [3] = top dose 2.56 µM, screen: GDSC drug entry 154
# [4] = top dose 10 µM, screen: GDSC drug entry 1241, top dose inferred
Cell Line,AUC (Thapsigargin),IC50 (Thapsigargin),AUC (QL-X-138),IC50 (QL-X-138),AUC (GSK269962A; [1]),IC50 (GSK269962A; [1]),AUC (GSK269962A; [2]),IC50 (GSK269962A; [2]),AUC (MPS-1-IN-1),IC50 (MPS-1-IN-1),AUC ((5Z)-7-Oxozeaenol),IC50 ((5Z)-7-Oxozeaenol),AUC (CP466722),IC50 (CP466722),AUC (Zibotentan),IC50 (Zibotentan),AUC (CMK),IC50 (CMK),AUC (ABT-869),IC50 (ABT-869),AUC (CHIR-99021; [3]),IC50 (CHIR-99021; [3]),AUC (CHIR-99021; [4]),IC50 (CHIR-99021; [4]),AUC (Cytarabine),IC50 (Cytarabine),AUC (KU-55933),IC50 (KU-55933),AUC (ABT-888),IC50 (ABT-888)
"Daudi (Burkitt lymphoma, suspension)",0.172,3.9 nM,0.324,222 nM,0.871,1850 nM,0.857,3270 nM,0.859,13300 nM,0.607,1180 nM,0.977,> 16000 nM,0.988,> 20000 nM,0.886,3420 nM,0.99,> 1020 nM,0.969,> 2560 nM,0.968,> 10000 nM,0.985,> 2000 nM,0.971,> 10000 nM,–,–
"KMS-12-BM (myeloma, suspension)",0.181,4.48 nM,0.459,504 nM,0.991,> 2500 nM,–,–,0.843,10700 nM,–,–,0.613,1920 nM,0.987,> 20000 nM,0.888,3140 nM,0.991,> 1020 nM,0.991,> 2560 nM,–,–,0.942,> 2000 nM,–,–,0.991,> 5000 nM
"LB2241-RCC (kidney, adherent)",0.62,71.4 nM,0.984,> 10200 nM,0.835,1930 nM,0.734,1590 nM,0.97,> 20000 nM,0.479,544 nM,0.984,> 16000 nM,0.984,> 20000 nM,0.661,743 nM,0.984,> 1020 nM,0.976,> 2560 nM,0.63,1500 nM,0.394,61.5 nM,–,–,0.977,> 5000 nM
"LS-123 (large intestine, adherent)",0.34,9.88 nM,0.614,1460 nM,0.945,> 2500 nM,0.908,> 5000 nM,0.931,> 20000 nM,0.634,1660 nM,0.821,13600 nM,0.978,> 20000 nM,0.895,> 4000 nM,0.96,> 1020 nM,0.98,> 2560 nM,0.975,> 10000 nM,0.979,> 2000 nM,–,–,0.973,> 5000 nM
"LU-139 (small cell lung carcinoma, suspension)",0.594,62.4 nM,–,–,0.948,> 2500 nM,0.847,> 5000 nM,0.961,> 20000 nM,0.672,2180 nM,0.719,5050 nM,0.933,> 20000 nM,0.919,> 4000 nM,0.947,> 1020 nM,0.944,> 2560 nM,0.98,> 10000 nM,0.956,> 2000 nM,–,–,0.899,> 5000 nM
"NCI-H716 (large intestine, suspension)",0.89,> 512 nM,0.873,> 10200 nM,0.975,> 2500 nM,0.77,2390 nM,0.871,> 20000 nM,0.763,4500 nM,0.855,> 16000 nM,0.976,> 20000 nM,0.979,> 4000 nM,0.965,> 1020 nM,0.981,> 2560 nM,0.979,> 10000 nM,0.982,> 2000 nM,–,–,0.809,3470 nM
"NCI-H1963 (small cell lung carcinoma, suspension)",0.609,61.2 nM,–,–,0.831,1310 nM,–,–,0.991,> 20000 nM,–,–,–,–,0.986,> 20000 nM,0.807,1740 nM,–,–,0.991,> 2560 nM,–,–,0.965,> 2000 nM,–,–,0.991,> 5000 nM
"RL95-2 (endometrium, adherent)",–,–,0.947,> 10200 nM,0.94,> 2500 nM,0.881,> 5000 nM,0.803,9760 nM,0.753,3320 nM,0.913,> 16000 nM,0.986,> 20000 nM,0.849,2970 nM,0.986,> 1020 nM,0.987,> 2560 nM,0.986,> 10000 nM,0.721,524 nM,–,–,0.987,> 5000 nM
"SIMA (neuroblastoma, adherent)",0.524,37.4 nM,0.858,> 10200 nM,0.888,> 2500 nM,0.883,> 5000 nM,0.814,12700 nM,0.588,1130 nM,0.852,15000 nM,0.971,> 20000 nM,0.958,> 4000 nM,0.985,> 1020 nM,0.963,> 2560 nM,0.96,> 10000 nM,–,–,0.982,> 10000 nM,0.985,> 5000 nM
